# According to PubChem BioAssay AID1259400 (National Center for Advancing Translational Sciences (NCATS), 2018):
# Values joined by “and” are separate entries in the source; they are usually repeats but may differ in a detail not shown here. Identical values can stand only once. About 2,100 (0.6%) of roughly 350,000 compounds were called active. Inconclusive means that the source gave no clear call. Such entries were picked first, then a sample of the others.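 The calls were made as follows: active = activity change of -60% or lower, but not beyond a set lower limit; inconclusive = change between -60% and -40%, or beyond the set limit; inactive = change above -40%.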
# Molecular target: Relaxin receptor 1 (Homo sapiens) (UniProt Q9HBX9)
# Test: qHTS Assay for Antagonists of the Relaxin Receptor RXFP1
# Conditions: HEK293-RXFP1, relaxin-stimulated cAMP HTRF, 30 min; at 57.5 µM; active compounds read low
# % is scaled to controls: 0 for no effect and ±100 for the full control effect.
# Chain of UniProt Q9HBX9 (Q9HBX9 whole entry, looked up): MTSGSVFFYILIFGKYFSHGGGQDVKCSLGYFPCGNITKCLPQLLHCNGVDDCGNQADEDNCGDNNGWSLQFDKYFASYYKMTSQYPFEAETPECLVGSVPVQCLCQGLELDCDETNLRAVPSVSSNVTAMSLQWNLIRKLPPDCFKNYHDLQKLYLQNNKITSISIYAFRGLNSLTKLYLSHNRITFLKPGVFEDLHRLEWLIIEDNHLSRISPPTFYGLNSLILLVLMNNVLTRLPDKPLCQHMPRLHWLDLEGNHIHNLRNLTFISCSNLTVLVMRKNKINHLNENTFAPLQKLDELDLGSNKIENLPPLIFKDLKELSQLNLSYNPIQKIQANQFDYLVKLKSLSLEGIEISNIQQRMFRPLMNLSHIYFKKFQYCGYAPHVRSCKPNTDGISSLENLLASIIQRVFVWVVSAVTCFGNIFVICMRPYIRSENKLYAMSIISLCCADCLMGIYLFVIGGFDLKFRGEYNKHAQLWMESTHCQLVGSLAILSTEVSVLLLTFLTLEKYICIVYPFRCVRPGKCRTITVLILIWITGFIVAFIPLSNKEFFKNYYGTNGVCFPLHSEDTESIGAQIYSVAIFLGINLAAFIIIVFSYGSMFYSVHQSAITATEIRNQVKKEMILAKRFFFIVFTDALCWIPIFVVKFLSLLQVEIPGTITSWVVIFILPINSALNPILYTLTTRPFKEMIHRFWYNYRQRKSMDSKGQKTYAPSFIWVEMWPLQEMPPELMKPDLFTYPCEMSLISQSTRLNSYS
row,Structure (SMILES),"activity change, negative = inhibition"
1,CC(C)N(Cc1cn(C)nc1-c1cccc(Cl)c1)Cc1nccn1C,inconclusive: -49%
2,[N-]=[N+]=CC(=O)C(c1ccccc1)(c1ccccc1)c1ccccc1,inconclusive: -49.6%
3,Cc1cc(C(=O)OCC(N)=O)c(C)n1-c1ccccc1,inconclusive: -40.8%
4,N#CC1=C(N)OC2=C(C(=O)CCC2)C1c1ccoc1 (stereo not given),inactive: -7.48%
5,COc1ccc(CCNC(=O)c2ccc3c(c2)nc(C)n3-c2ccc(Br)cc2)cc1OC,inactive: -27.1%
6,O=C(Nc1nc2cc3c(cc2s1)OCCO3)c1ccncc1,inconclusive: -41.7%
7,CCOc1ccc(C2C=C(c3ccccc3)Nc3nnnn32)cc1 (stereo not given),inactive: -8.86%
8,CN(CC(=O)Nc1ccc(Cl)c(Cl)c1)Cc1nnc(-c2ccc(F)cc2)o1,active: -63.1%
9,C/C(=N\Nc1nc2ccccc2[nH]1)c1ccc2c(c1)OCCO2,inconclusive: -56.3%
10,Cc1ccc(CSc2nc3cccnc3n2Cc2ccc(C(=O)NC3CC3)cc2)cc1,inconclusive: -47.3%
11,Cc1ccc(CNc2ccc(N3CCOCC3)cc2)cc1,inactive: -8.97%
12,Cc1sc2nc(C(C)C)nc(SCC(=O)N3c4ccccc4CC3C)c2c1C (stereo not given),inconclusive: -43.8%
13,O=[N+]([O-])c1ccc(Cl)c2c1C1C=CCC1C(c1ccccn1)N2 (stereo not given),active: -118%
14,Cc1cc(C)cc(NC(=O)Cn2nnc(C(=O)NCc3ccc4c(c3)OCO4)c2N)c1,inconclusive: -45.7%
15,COCCOc1ccc(C(F)(F)F)cc1NC(=O)COC(=O)C1=COCCO1,inconclusive: -44.8%
16,CCN1CCN(c2cc(N3CCc4ccccc4C3)c(F)cc2[N+](=O)[O-])CC1,active: -115%
17,Cc1ccc(C)c(OCCn2c(-c3ccc(Cl)cc3)nc3ccccc3c2=O)c1C,inactive: -0.799%
18,COc1ccc(OC)c(CN2CCCCCC2)c1,active: -119%
19,Cc1ccc(C)c(CN2CCCN(Cc3ccc(F)cc3)S2(=O)=O)c1,inconclusive: -45.4%
20,COc1ccc(NC(=O)c2nc3ccccc3s2)cc1,inactive: 8.98%
21,CC(C)(C)c1ccc(NC(=O)C2CCCN(c3cnccn3)C2)cc1 (stereo not given),inactive: -27.9% and inactive: -25.2%
22,N=C1C(c2nc(-c3ccc(Cl)cc3)cs2)=C(O)CN1NC(=O)c1ccc(O)cc1,inconclusive: -41.7%
23,CC1CN(C(=O)CCc2ccccc2)C(C)CN1C(=O)CCc1ccccc1 (stereo not given),inconclusive: -46.8%
24,Cc1nc(C)c(-c2ccc(SCC(=O)Nc3ccc(Br)cc3)nn2)s1,inconclusive: -44.5%
25,COc1cc(CNCc2ccccc2)c(Br)cc1OC1CCCC1,active: -60.9%
